We go through 32 variants from the GPR68 mutational scans of Howard et al. (2025).

Scores whose standard error is large were omitted. Not listed are two conditions whose scores span a narrow range. Names with del lack the residues named; names with ins carry added residues between the positions named. For some of these results: The concentration of ogerin is not given here.

B1: GPR68, Q15743 (parent)
chain: MGNITADNSSMSCTIDHTIHQTLAPVVYVTVLVVGFPANCLSLYFGYLQIKARNELGVYLCNLTVADLFYICSLPFWLQYVLQHDNWSHGDLSCQVCGILLYENIYISVGFLCCISVDRYLAVAHPFRFHQFRTLKAAVGVSVVIWAKELLTSIYFLMHEEVIEDENQHRVCFEHYPIQAWQRAINYYRFLVGFLFPICLLLASYQGILRAVRRSHGTQKSRKDQIQRLVLSTVVIFLACFLPYHVLLLVRSVWEASCDFAKGVFNAYHFSLLLTSFNCVADPVLYCFVSETTHRDLARLRGACLAFLTCSRTGRAREAYPLGAPEASGKSGAQGEEPELLTKLHPAFQTPNSPGSGGFPTGRLA

Variants of B1 are the subject of data set [1]. Briefly: cAMP reporter score (Enrich2 score, wild type = 0); higher = more signal; HEK293T, FACS bins.
Variants of B1 are the subject of data set [2]. Briefly: surface expression score (Enrich2 score, wild type = 0); higher = more signal; HEK293T, FACS bins.

On to L41V, for which the cAMP reporter score in data set [1] (pH 5.5) is -0.71; in data set [1] (pH 6), -0.232; in data set [1] (pH 6, modulator: ogerin), -0.474; in data set [1] (pH 6.5, modulator: ogerin), -0.789. Also, the surface expression score in data set [2] is -0.613.
In the case of L41P, the cAMP reporter score in data set [1] (pH 5.5) is -0.225; in data set [1] (pH 6), 0.525; in data set [1] (pH 6, modulator: ogerin), 0; in data set [1] (pH 6.5, modulator: ogerin), -0.057. Besides, the surface expression score in data set [2] was -2.41.
On the same counts, the results for L41I are 0.332, 0.113, 0.196, -0.788 and 0.195.
Consider L41F, for which the cAMP reporter score in data set [1] (pH 5.5) was 0.045; in data set [1] (pH 6, modulator: ogerin) it was 0.236; in data set [1] (pH 6.5, modulator: ogerin), -0.431. For the same variant, the surface expression score in data set [2] is -0.334.
Turning to L41T, the cAMP reporter score in data set [1] (pH 5.5) was -1.26; in data set [1] (pH 6) it was -0.881; in data set [1] (pH 6, modulator: ogerin), -1.22; in data set [1] (pH 6.5, modulator: ogerin) it was -1.46. Besides, in data set [2], the surface expression score is -2.25.
For L41S the same measures were -1.29, -0.921, -1.73, -0.949 and -2.82.
As for L41M, the cAMP reporter score in data set [1] (pH 5.5) is -0.45; in data set [1] (pH 6) it was -0.628; in data set [1] (pH 6, modulator: ogerin), -0.513; in data set [1] (pH 6.5, modulator: ogerin), -0.517. Also, in data set [2], the surface expression score was -1.16.
L41N: the cAMP reporter score was -1.5 in data set [1] (pH 5.5); -1.63 in data set [1] (pH 6); -1.86 in data set [1] (pH 6, modulator: ogerin); -1.03 in data set [1] (pH 6.5, modulator: ogerin). The surface expression score in data set [2] was -2.39.
Consider L41W, for which the cAMP reporter score in data set [1] (pH 5.5) is -1.66; in data set [1] (pH 6) it was -0.209; in data set [1] (pH 6, modulator: ogerin), -0.571; in data set [1] (pH 6.5, modulator: ogerin), -1.1. For the same variant, the surface expression score in data set [2] was -0.674.
On the same counts, the results for I50_K51insGS are -1.97, -1.4, -1.47, -0.712 and -2.58.
For S42_Y44del the same measures were -1.39, -1.33, -1.77, -1.48 and -2.63.
On to Y47_Q49del, for which the cAMP reporter score was -1.31 in data set [1] (pH 5.5); -1.02 in data set [1] (pH 6); -1.5 in data set [1] (pH 6.5, modulator: ogerin). The surface expression score in data set [2] is -2.88.
For F45_G46insGSG, the cAMP reporter score was -1.31 in data set [1] (pH 5.5); -1.29 in data set [1] (pH 6); -1.68 in data set [1] (pH 6, modulator: ogerin); -0.889 in data set [1] (pH 6.5, modulator: ogerin). In data set [2], the surface expression score is -2.02.
As for L43_Y44del, the cAMP reporter score in data set [1] (pH 5.5) is -2.05; in data set [1] (pH 6.5, modulator: ogerin) it was -1.32. Also, the surface expression score in data set [2] was -2.12.
For I50_K51insGSG, the cAMP reporter score was -1.52 in data set [1] (pH 5.5); -1.5 in data set [1] (pH 6); -1.72 in data set [1] (pH 6, modulator: ogerin); -1.2 in data set [1] (pH 6.5, modulator: ogerin). For the same variant, the surface expression score in data set [2] was -2.21.
On the same counts, the results for L41_S42del are -2.21, -0.39, -1.51, -1.07 and -1.4.
Consider Y44_G46del, for which the cAMP reporter score in data set [1] (pH 5.5) was -1.35; in data set [1] (pH 6), -0.828; in data set [1] (pH 6, modulator: ogerin), -1.22; in data set [1] (pH 6.5, modulator: ogerin), -1.39. Moreover, the surface expression score in data set [2] is -2.46.
As to Y44_F45insGS, the cAMP reporter score in data set [1] (pH 5.5) was -1.6; in data set [1] (pH 6), -1.43; in data set [1] (pH 6, modulator: ogerin) it was -2.54; in data set [1] (pH 6.5, modulator: ogerin) it was -1.05. Further, the surface expression score in data set [2] is -2.27.
For the variant Y44_F45insGSG, the cAMP reporter score in data set [1] (pH 5.5) was -1.51; in data set [1] (pH 6) it was -1.02; in data set [1] (pH 6, modulator: ogerin) it was -1.45; in data set [1] (pH 6.5, modulator: ogerin), -1.31. For the same variant, in data set [2], the surface expression score was -2.8.
As for L48F, the cAMP reporter score was -1.12 in data set [1] (pH 5.5); -0.175 in data set [1] (pH 6, modulator: ogerin); -1.16 in data set [1] (pH 6.5, modulator: ogerin). The surface expression score in data set [2] is -1.87.
With L48N, the cAMP reporter score was 0.171 in data set [1] (pH 5.5); -0.821 in data set [1] (pH 6); -0.051 in data set [1] (pH 6, modulator: ogerin); -0.164 in data set [1] (pH 6.5, modulator: ogerin). Besides, in data set [2], the surface expression score is -1.28.
In the case of L48V, the cAMP reporter score in data set [1] (pH 5.5) is -1.01; in data set [1] (pH 6, modulator: ogerin), -0.744; in data set [1] (pH 6.5, modulator: ogerin), -1.43. Moreover, the surface expression score in data set [2] is -1.17.
With L48H, the cAMP reporter score in data set [1] (pH 5.5) is -0.715; in data set [1] (pH 6), -1.16; in data set [1] (pH 6, modulator: ogerin) it was -1.21. The surface expression score in data set [2] is -0.974.
For L48R the same measures were 2.52, -0.375, -0.181 and -0.407.
For the variant L48M, the cAMP reporter score in data set [1] (pH 5.5) is -0.15; in data set [1] (pH 6), -0.531; in data set [1] (pH 6, modulator: ogerin), 0.204; in data set [1] (pH 6.5, modulator: ogerin), 1.43. In data set [2], the surface expression score was 0.058.
With L48D, the cAMP reporter score in data set [1] (pH 5.5) is -1.37; in data set [1] (pH 6), -0.728; in data set [1] (pH 6, modulator: ogerin) it was -1.14; in data set [1] (pH 6.5, modulator: ogerin), -0.86. In data set [2], the surface expression score was -2.48.
In the case of L48A, the cAMP reporter score in data set [1] (pH 5.5) was -0.459; in data set [1] (pH 6) it was -1.1; in data set [1] (pH 6, modulator: ogerin) it was -1.2; in data set [1] (pH 6.5, modulator: ogerin), -1.43. In addition, the surface expression score in data set [2] was -2.18.
With L48K, the cAMP reporter score amounted to 0.727 in data set [1] (pH 5.5); 0.892 in data set [1] (pH 6, modulator: ogerin); 0.066 in data set [1] (pH 6.5, modulator: ogerin). Further, the surface expression score in data set [2] amounted to 0.102.
L48S: the cAMP reporter score in data set [1] (pH 5.5) is 0.118; in data set [1] (pH 6) it was -1.5; in data set [1] (pH 6, modulator: ogerin) it was -0.337; in data set [1] (pH 6.5, modulator: ogerin) it was -1.26. Further, the surface expression score in data set [2] is -1.71.
As to L48W, the cAMP reporter score is -0.282 in data set [1] (pH 5.5); -1.32 in data set [1] (pH 6); -0.992 in data set [1] (pH 6, modulator: ogerin); -0.304 in data set [1] (pH 6.5, modulator: ogerin). Further, the surface expression score in data set [2] is -0.466.
For L48Q the same measures were 0.352, -0.061, 0.4, -0.285 and -0.861.
For L48P the same measures were -0.853, 0.453, -1.32, -0.424 and -2.31.
